# In PMC4336329 (PLoS ONE, 2015):
# In all, about 310,000 compounds went through this assay and about 14,000 (4.5%) showed an effect of 50% or more. The effect is printed as a negative number. Some of the results follow.
# Target: human ether-à-go-go-related gene (hERG) potassium channel (human, UniProt Q12809)
# Assay: primary screen, population patch clamp on CHO cells stably expressing hERG
# 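Further: peak tail current of the secondary pulse compared with the same well before compound.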
# Chain of human ether-à-go-go-related gene (hERG) potassium channel (Q12809 whole entry, looked up): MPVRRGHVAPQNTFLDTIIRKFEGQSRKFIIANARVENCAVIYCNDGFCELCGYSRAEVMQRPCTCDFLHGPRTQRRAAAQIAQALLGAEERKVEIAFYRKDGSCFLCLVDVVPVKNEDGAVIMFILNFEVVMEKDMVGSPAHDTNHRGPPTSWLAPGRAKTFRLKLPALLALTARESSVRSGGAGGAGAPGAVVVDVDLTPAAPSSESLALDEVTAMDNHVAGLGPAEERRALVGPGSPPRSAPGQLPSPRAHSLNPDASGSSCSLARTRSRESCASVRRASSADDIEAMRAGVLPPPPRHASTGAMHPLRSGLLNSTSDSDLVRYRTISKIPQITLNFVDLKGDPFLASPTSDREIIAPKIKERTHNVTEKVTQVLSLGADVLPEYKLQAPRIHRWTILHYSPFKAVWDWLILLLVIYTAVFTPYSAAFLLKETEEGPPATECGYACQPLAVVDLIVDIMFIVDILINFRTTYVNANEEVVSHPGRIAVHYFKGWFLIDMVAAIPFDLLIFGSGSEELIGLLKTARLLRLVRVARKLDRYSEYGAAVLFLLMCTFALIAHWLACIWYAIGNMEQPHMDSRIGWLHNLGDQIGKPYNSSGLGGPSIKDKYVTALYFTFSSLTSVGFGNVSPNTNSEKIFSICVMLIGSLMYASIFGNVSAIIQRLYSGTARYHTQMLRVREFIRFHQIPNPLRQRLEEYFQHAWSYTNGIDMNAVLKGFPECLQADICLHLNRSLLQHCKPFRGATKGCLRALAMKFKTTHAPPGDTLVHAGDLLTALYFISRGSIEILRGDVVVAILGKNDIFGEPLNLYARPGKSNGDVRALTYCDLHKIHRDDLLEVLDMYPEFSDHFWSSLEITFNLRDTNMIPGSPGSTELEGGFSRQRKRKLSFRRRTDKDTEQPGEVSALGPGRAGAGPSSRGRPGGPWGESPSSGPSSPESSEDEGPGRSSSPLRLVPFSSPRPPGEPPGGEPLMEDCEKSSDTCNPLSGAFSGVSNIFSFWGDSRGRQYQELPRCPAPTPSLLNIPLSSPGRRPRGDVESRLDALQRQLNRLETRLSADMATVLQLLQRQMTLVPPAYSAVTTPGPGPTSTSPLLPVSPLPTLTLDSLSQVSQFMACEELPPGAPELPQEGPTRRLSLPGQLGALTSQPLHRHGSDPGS
row,SMILES,"hERG current change (%, negative = inhibition) at 10uM [%]"
1,N#C/C(=C(/O)CCl)c1nc2c(s1)CCc1ccccc1-2,10.3
2,COc1ccc(CN2CCNC(=O)C2CC(=O)NCCc2nc(C)c(C)s2)c(OC)c1 (stereo not shown),-13.5
3,Cl.NC(Cc1ccccc1)C(=O)N1CCCCC1 (stereo not shown),18.8
4,CCOc1ccccc1N1CC(C(=O)N(CC)CC(=O)Nc2ccc3c(c2)OCCO3)CC1=O (stereo not shown),-6.39
5,Nc1ccc2c(c1)C(=O)c1ccccc1-2,10.6
6,COc1ccc(C2CC(c3cccs3)=NN2S(C)(=O)=O)cc1OC (stereo not shown),1.63
7,Cc1cccc2nc(CSc3nc4cc([N+](=O)[O-])ccc4s3)cn12,-21.7
8,Cc1ccc(OCc2n[nH]c(=S)n2-c2ccc(Cl)cc2)cc1,18.2
9,COCCCn1c(=O)c2ccccc2n(Cc2cccc(C)c2)c1=O,-7.42
10,CC1(C)Cc2ccccc2C(c2cc3ccccc3oc2=O)=N1,-10.2
11,CCCCCC(=O)Nc1ccc(N2CCN(C(=O)c3ccccc3)CC2)cc1,-62.8
12,CCOC(=O)c1cnc2nc(Cc3ccccc3)[nH]n2c1=O,9.17
13,CCOc1ccccc1N(CC(=O)N1CCCC1)S(C)(=O)=O,17.4
14,CCOc1ccc(S(=O)(=O)Nc2cccc(-c3ccc(N4CCCCCC4)nn3)c2)cc1,18.7
15,CC(=O)Oc1ccc(N(c2ccccc2)S(=O)(=O)c2ccc(C)cc2)cc1,14.2
16,O=c1[nH]ncn1-c1ccccc1C(F)(F)F,11.4
17,Cc1ccc2cc(CN(CCCO)S(=O)(=O)c3cccc4nsnc34)c(=O)[nH]c2c1,-18.5
18,O=C(N/C(=C\c1ccc(Br)cc1)c1nc2ccccc2[nH]1)c1ccco1,6.55
19,Cc1cc(S(=O)(=O)NC2CC(C)(C)NC(C)(C)C2)c(Cl)cc1Cl,-9.78
20,Cc1ccc(C)c(C(=O)Nc2c(C(N)=O)oc3ccccc23)c1,5.52
21,Nn1c(SC/C=C/c2ccccc2)nnc1-c1ccco1,-3.58
22,COCc1nc(-c2ccc(-c3ccc(C)cc3)nc2OC)no1,-2.11
23,COCCCNC(=O)Cn1nc(-c2ccc(C)cc2)ccc1=O,5.06
24,C=CCn1c(SCCOc2ccc(OC)cc2)nnc1C(CO)NC(=O)c1ccc(OC)cc1 (stereo not shown),-1.86
25,CCc1ccc(NC(=O)N[C@H](C(=O)O)C(C)CC)cc1 (stereo partly shown),10.5
